{"source": "the supplement of paper PMC8728848", "experiment_in_all_cases": "glycan array binding signal (z-score within array); higher = stronger binding", "details_in_all_cases": "glycan notation: IUPAC condensed, linker removed", "key": {"[1]": {"molecular_target": "Gal(b1-4)GlcNAc(b1-3)Gal(b1-4)GlcNAc(b1-3)[Gal(b1-4)GlcNAc(b1-3)Gal(b1-4)GlcNAc(b1-6)]GalNAc", "procedure,_shortened": "(§1)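 Arrays were curated from the Consortium for Functional Glycomics database, 3228 in total, and kept only where the protein sequence was available. Binding is expressed as a within-array Z-score. This score was averaged across arrays of the same protein sequence at different concentrations or buffers and across linkers, and negative values can be read as non-binding.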"}, "[2]": {"molecular_target": "Gal(b1-4)GlcNAc(b1-3)Gal(b1-4)GlcNAc(b1-6)[Gal(b1-3)]GalNAc", "procedure,_shortened": "as §1"}, "[3]": {"molecular_target": "Gal(b1-4)GlcNAc(b1-3)Gal(b1-4)[Fuc(a1-3)]GlcNAc(b1-3)Gal(b1-4)[Fuc(a1-3)]GlcNAc", "procedure,_shortened": "as §1"}, "[4]": {"molecular_target": "Gal(b1-4)GlcNAc(b1-3)GalNAc", "procedure,_shortened": "as §1"}, "[5]": {"molecular_target": "Gal(b1-4)GlcNAc(b1-3)[Fuc(a1-3)GlcNAc(b1-6)]Gal(b1-4)Glc", "procedure,_shortened": "as §1"}, "[6]": {"molecular_target": "Gal(b1-4)GlcNAc(b1-3)[Gal(b1-4)GlcNAc(b1-6)]Gal(b1-4)GlcNAc", "procedure,_shortened": "as §1"}, "[7]": {"molecular_target": "Gal(b1-4)GlcNAc(b1-3)[GlcNAc(b1-6)]Gal(b1-4)GlcNAc", "procedure,_shortened": "as §1"}, "[8]": {"molecular_target": "Gal(b1-4)GlcNAc(b1-6)Gal(b1-4)GlcNAc", "procedure,_shortened": "as §1"}, "[9]": {"molecular_target": "Gal(b1-4)GlcNAc(b1-6)GalNAc", "procedure,_shortened": "as §1"}, "[10]": {"molecular_target": "Gal(b1-4)GlcNAc(b1-6)[Gal(b1-3)]GalNAc", "procedure,_shortened": "as §1"}, "[11]": {"molecular_target": "Gal(b1-4)GlcNAc(b1-6)[Gal(b1-4)GlcNAc(b1-3)]GalNAc", "procedure,_shortened": "as §1"}, "[12]": {"molecular_target": "Gal(b1-4)GlcNAc6P", "procedure,_shortened": "as §1"}, "[13]": {"molecular_target": "Gal(b1-6)Gal", "procedure,_shortened": "as §1"}, "[14]": {"molecular_target": "Gal3S(b1-3)GalNAc", "procedure,_shortened": "as §1"}, "[15]": {"molecular_target": "Gal3S(b1-3)GlcNAc", "procedure,_shortened": "as §1"}, "[16]": {"molecular_target": "Gal3S(b1-3)[Fuc(a1-4)]GlcNAc", "procedure,_shortened": "as §1"}, "[17]": {"molecular_target": "Gal3S(b1-4)Glc", "procedure,_shortened": "as §1"}, "[18]": {"molecular_target": "Gal3S(b1-4)Glc6S", "procedure,_shortened": "as §1"}, "[19]": {"molecular_target": "Gal3S(b1-4)GlcNAc", "procedure,_shortened": "as §1"}, "[20]": {"molecular_target": "Gal3S(b1-4)[Fuc(a1-3)]Glc6S", "procedure,_shortened": "as §1"}, "[21]": {"molecular_target": "Gal3S(b1-4)[Fuc(a1-3)]GlcNAc", "procedure,_shortened": "as §1"}, "[22]": {"molecular_target": "Gal3S(b1-4)[Fuc(a1-3)]GlcNAc6S", "procedure,_shortened": "as §1"}, "[23]": {"molecular_target": "Gal3S4S(b1-4)GlcNAc", "procedure,_shortened": "as §1"}, "[24]": {"molecular_target": "Gal3S6S(b1-4)GlcNAc", "procedure,_shortened": "as §1"}, "[25]": {"molecular_target": "Gal3S6S(b1-4)GlcNAc6S", "procedure,_shortened": "as §1"}, "[26]": {"molecular_target": "Gal4S(b1-4)GlcNAc", "procedure,_shortened": "as §1"}, "[27]": {"molecular_target": "Gal4S6S(b1-4)GlcNAc", "procedure,_shortened": "as §1"}, "[28]": {"molecular_target": "Gal6P(b1-4)GlcNAc", "procedure,_shortened": "as §1"}, "[29]": {"molecular_target": "Gal6S(b1-3)GlcNAc", "procedure,_shortened": "as §1"}, "[30]": {"molecular_target": "Gal6S(b1-3)GlcNAc6S", "procedure,_shortened": "as §1"}, "[31]": {"molecular_target": "Gal6S(b1-4)Glc", "procedure,_shortened": "as §1"}, "[32]": {"molecular_target": "Gal6S(b1-4)Glc6S", "procedure,_shortened": "as §1"}, "[33]": {"molecular_target": "Gal6S(b1-4)GlcNAc", "procedure,_shortened": "as §1"}, "[34]": {"molecular_target": "Gal6S(b1-4)GlcNAc6S", "procedure,_shortened": "as §1"}, "[35]": {"molecular_target": "GalNAc(a1-3)Gal", "procedure,_shortened": "as §1"}, "[36]": {"molecular_target": "GalNAc(a1-3)GalNAc", "procedure,_shortened": "as §1"}, "[37]": {"molecular_target": "GalNAc(a1-3)GalNAc(b1-3)Gal(a1-4)Gal(b1-4)Glc", "procedure,_shortened": "as §1"}, "[38]": {"molecular_target": "GalNAc(a1-3)GalNAc(b1-3)Gal(a1-4)Gal(b1-4)GlcNAc", "procedure,_shortened": "as §1"}, "[39]": {"molecular_target": "GalNAc(b1-3)Gal", "procedure,_shortened": "as §1"}, "[40]": {"molecular_target": "GalNAc(b1-3)Gal(a1-4)Gal(b1-4)GlcNAc", "procedure,_shortened": "as §1"}, "[41]": {"molecular_target": "GalNAc(b1-3)Gal(a1-4)Gal(b1-4)GlcNAc(b1-3)Gal(b1-4)Glc", "procedure,_shortened": "as §1"}, "[42]": {"molecular_target": "GalNAc(b1-3)Gal(a1-6)Gal(b1-4)Glc", "procedure,_shortened": "as §1"}, "[43]": {"molecular_target": "GalNAc(b1-3)GalNAc", "procedure,_shortened": "as §1"}, "[44]": {"molecular_target": "GalNAc(b1-3)GlcNAc", "procedure,_shortened": "as §1"}, "[45]": {"molecular_target": "GalNAc(b1-4)Gal(b1-4)Glc", "procedure,_shortened": "as §1"}}, "note": "The other results are listed elsewhere or left out."}
{"binder": "HBHA-Rv (Mycobacterium tuberculosum), P0A5P6 (protein) MAENSNIDDIKAPLLAALGAADLALATVNELITNLRERAEETRTDTRSRVEESRARLTKLQEDLPEQLTELREKFTAEELRKAAEGYLEAATSRYNELVERGEAALERLRSQQSFEEVSARAEGYVDQAVELTQEALGTVASQTRAVGERAAKLVGIELPKKAAPAKKAAPAKKAAPAKKAAAKKAPAKKAAAKKVTQK", "values": [{"measurement": "glycan array binding signal (z-score)", "setting": "[1]", "result": -0.22}, {"measurement": "glycan array binding signal (z-score)", "setting": "[2]", "result": -0.399}, {"measurement": "glycan array binding signal (z-score)", "setting": "[3]", "result": -0.022}, {"measurement": "glycan array binding signal (z-score)", "setting": "[4]", "result": 0.153}, {"measurement": "glycan array binding signal (z-score)", "setting": "[5]", "result": -0.398}, {"measurement": "glycan array binding signal (z-score)", "setting": "[6]", "result": -0.469}, {"measurement": "glycan array binding signal (z-score)", "setting": "[7]", "result": -0.345}, {"measurement": "glycan array binding signal (z-score)", "setting": "[8]", "result": -0.117}, {"measurement": "glycan array binding signal (z-score)", "setting": "[9]", "result": 0.172}, {"measurement": "glycan array binding signal (z-score)", "setting": "[10]", "result": -0.216}, {"measurement": "glycan array binding signal (z-score)", "setting": "[11]", "result": 0.498}, {"measurement": "glycan array binding signal (z-score)", "setting": "[12]", "result": -0.387}, {"measurement": "glycan array binding signal (z-score)", "setting": "[13]", "result": -0.145}, {"measurement": "glycan array binding signal (z-score)", "setting": "[14]", "result": 0.518}, {"measurement": "glycan array binding signal (z-score)", "setting": "[15]", "result": 0.473}, {"measurement": "glycan array binding signal (z-score)", "setting": "[16]", "result": -0.037}, {"measurement": "glycan array binding signal (z-score)", "setting": "[17]", "result": 0.162}, {"measurement": "glycan array binding signal (z-score)", "setting": "[18]", "result": 0.3}, {"measurement": "glycan array binding signal (z-score)", "setting": "[19]", "result": 0.244}, {"measurement": "glycan array binding signal (z-score)", "setting": "[20]", "result": -0.104}, {"measurement": "glycan array binding signal (z-score)", "setting": "[21]", "result": 0.345}, {"measurement": "glycan array binding signal (z-score)", "setting": "[22]", "result": 0.922}, {"measurement": "glycan array binding signal (z-score)", "setting": "[23]", "result": 0.151}, {"measurement": "glycan array binding signal (z-score)", "setting": "[24]", "result": 0.023}, {"measurement": "glycan array binding signal (z-score)", "setting": "[25]", "result": 1.29}, {"measurement": "glycan array binding signal (z-score)", "setting": "[26]", "result": 0.695}, {"measurement": "glycan array binding signal (z-score)", "setting": "[27]", "result": 0.83}, {"measurement": "glycan array binding signal (z-score)", "setting": "[28]", "result": -0.361}, {"measurement": "glycan array binding signal (z-score)", "setting": "[29]", "result": 0.37}, {"measurement": "glycan array binding signal (z-score)", "setting": "[30]", "result": -0.075}, {"measurement": "glycan array binding signal (z-score)", "setting": "[31]", "result": 1.36}, {"measurement": "glycan array binding signal (z-score)", "setting": "[32]", "result": 0.834}, {"measurement": "glycan array binding signal (z-score)", "setting": "[33]", "result": 0.696}, {"measurement": "glycan array binding signal (z-score)", "setting": "[34]", "result": 0.203}, {"measurement": "glycan array binding signal (z-score)", "setting": "[35]", "result": 0.188}, {"measurement": "glycan array binding signal (z-score)", "setting": "[36]", "result": 0.675}, {"measurement": "glycan array binding signal (z-score)", "setting": "[37]", "result": -0.385}, {"measurement": "glycan array binding signal (z-score)", "setting": "[38]", "result": 0.131}, {"measurement": "glycan array binding signal (z-score)", "setting": "[39]", "result": -0.428}, {"measurement": "glycan array binding signal (z-score)", "setting": "[40]", "result": -0.143}, {"measurement": "glycan array binding signal (z-score)", "setting": "[41]", "result": -0.273}, {"measurement": "glycan array binding signal (z-score)", "setting": "[42]", "result": -0.235}, {"measurement": "glycan array binding signal (z-score)", "setting": "[43]", "result": -0.163}, {"measurement": "glycan array binding signal (z-score)", "setting": "[44]", "result": -0.441}, {"measurement": "glycan array binding signal (z-score)", "setting": "[45]", "result": 0.744}]}
